Data as given in patent publication US20240026032A1 (Alexion, published 2024).

Target: T1, Human DLAT recombinant protein (ProSpec, Catalog # ENZ-082) (human, UniProt P10515 87-647, limits assumed)
T1 construct: also called DLAT antigen; Dihydrolipoamide Acetyltransferase
T1 sequence (looked up): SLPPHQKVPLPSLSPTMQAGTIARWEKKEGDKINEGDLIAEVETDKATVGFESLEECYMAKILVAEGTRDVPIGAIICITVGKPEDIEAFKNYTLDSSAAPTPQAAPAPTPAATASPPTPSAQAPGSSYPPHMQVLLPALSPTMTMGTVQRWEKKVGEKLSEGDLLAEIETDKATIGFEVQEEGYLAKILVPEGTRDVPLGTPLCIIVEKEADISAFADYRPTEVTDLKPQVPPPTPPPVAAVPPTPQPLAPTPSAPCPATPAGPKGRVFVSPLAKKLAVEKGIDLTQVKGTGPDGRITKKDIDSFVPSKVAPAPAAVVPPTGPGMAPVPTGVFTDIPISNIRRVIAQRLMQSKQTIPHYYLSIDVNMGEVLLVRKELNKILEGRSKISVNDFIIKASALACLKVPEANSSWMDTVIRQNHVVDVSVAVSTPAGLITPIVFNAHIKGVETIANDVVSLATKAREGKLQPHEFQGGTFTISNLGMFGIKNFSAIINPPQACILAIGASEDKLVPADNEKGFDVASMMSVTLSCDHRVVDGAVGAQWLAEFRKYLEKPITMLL
Experiment: BLI (Octet Red), PD-L1 Fc loaded on anti-human IgG Fc tips, DLAT as analyte
Description: Antibodies and antibody fusions were diluted to 16 μg/mL in PBS and loaded onto anti-human IgG Fc tips (ForteBio, Catalog # 18-5064). Human DLAT recombinant protein (ProSpec, Catalog # ENZ-082) was diluted into PBS to 10 μg/mL. […] Finally, a dissociation step in PBS was performed to determine dissociation from the bound antibodies.

B1: Programmed Death Ligand 1 (PD-L1) Fc chimera (R&D Systems, Catalog # 156-B[…]) (Fc fusion)
chain: not shown
notes: Described as a dimeric protein having two PD-L1 proteins fused to a human Fc; also called PD-L1 Fc control; not shown: human Fc of the bought chimera
Does B1 bind?
Result: no binding (tested: 10 µg/mL)
